According to PubChem BioAssay AID686979 (National Center for Advancing Translational Sciences (NCATS), 2013):
About 50,000 (12%) of roughly 420,000 compounds were called active. This list was built around the results that the source calls inconclusive (neither active nor inactive); the mix of calls is not that of the screen. Calls follow the shape of the dose curve; as a rule, active = well fitted inhibition curve with a large enough effect; inconclusive = small, poorly fitted or top-dose-only effect; inactive = flat fitted curve, though single readings scatter. Potencies of inconclusive entries are left out as doubtful fits.

Experiment: qHTS for Inhibitors of human tyrosyl-DNA phosphodiesterase 1 (TDP1): qHTS in cells in presence of CPT; also: nearly all actives have a fitted effect of over 55% in size
Details: chicken DT40 Tdp1-/-;hTDP1 cells + 20 nM CPT, ATP luminescence, 48 h; series mostly up to 46.2 µM
Summary of the method: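 Chicken DT40 Tdp1-/- cells complemented with human TDP1, 400 cells/well, exposed to compounds plus 20 nM camptothecin for at least 48 h at 37 C; viability read as ATP content by CellTiter-Glo luminescence.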
Potency is read from the fitted curve at half-maximal effect; tags tell the direction and shape of the fitted curve.

| Structure (SMILES) | Potency |
| --- | --- |
| Cn1nc(-c2ccc(C(=O)Nc3cccc(Cl)c3)cc2)c2ccccc2c1=O | inconclusive [inhibitor, single point] |
| C#CCNC(=O)C1=C[C@@H](c2csc3ccccc23)C[C@@H](OCc2ccc(CO)cc2)O1 | active: 16.4 µM |
| COc1ccccc1Nc1nc(N)nc(CSc2nccc(C)n2)n1 | inactive |
| Cc1ccc(/C=N/N2CCN(C3c4ccccc4-c4ccccc43)CC2)o1 | inconclusive [inhibitor, single point] |
| CCOC(=O)/C(=C/c1c2ccccc2cc2ccccc12)NC(=O)c1ccccc1 | inconclusive [inhibitor, single point] |
| Cc1cccc(N(CC(=O)NCC2CCCO2)C(=O)CCC(=O)Nc2nccs2)c1 (stereo not given) | inactive |
| COc1cccc(CC2(CO)CCCN(Cc3cn[nH]c3-c3ccc(F)cc3)C2)c1 (stereo not given) | inconclusive [inhibitor, partial curve] |
| Cc1ccccc1C1CC(c2ccccc2)Nc2ncnn21 (stereo not given) | inconclusive [inhibitor, single point] |
| CCN1CCN(Cc2ccc(NC(=O)c3cc(NC(=O)N4CCNC4=O)cc(OC)c3)cc2C(F)(F)F)CC1 | active: 16.4 µM |
| Cn1c(=O)c2cc(NC(=S)NC3CC3)ccc2n1Cc1ccccc1 | inactive |
| O=C(NCc1ccccn1)C1Nc2ccc(C(F)(F)F)cc2C2C=CCC12 (stereo not given) | inconclusive [inhibitor, single point] |
| O=C(Nc1ccc(Cl)cc1)C1Cc2c(-c3ccc4c(c3)OCO4)ccnc2O1 (stereo not given) | active: 23.1 µM |
| CCOc1cc(-c2ccc(OC(=O)c3ccccc3Cl)c(OC)c2)cc(=O)c2c(C)oc(C)c12 | inconclusive [inhibitor, single point] |
| CC1(c2nnc(Cc3ccccc3)o2)CC(c2cccc(F)c2)=NO1 (stereo not given) | inactive |
| COCCCN1CN(S(=O)(=O)c2cccs2)c2nc3ccccc3nc21 | inactive |
| FC(F)(F)c1ccc(CN2C[C@@H]3C(c4ccccc4)C4(c5cccnc5)CC3(C4)[C@H]2c2ccccc2)cc1 (stereo not given in full) | inconclusive [inhibitor, single point] |
| COc1ccc(CN(C(=S)Nc2ccccc2)C2CC(=O)N(c3ccc(Cl)cc3)C2=O)cc1 (stereo not given) | inconclusive [inhibitor, single point] |
| S=C(NCc1ccco1)N/N=C/c1ccccc1Cl | inconclusive [inhibitor, single point] |
| C=C(c1ccc2nc(NC(=O)OC)[nH]c2c1)c1cccs1 | active: 0.731 µM |
| CCN(C(=O)c1ccc(Cl)cc1[N+](=O)[O-])c1ccccc1C | active: 16.4 µM |
